In article PMC4336329 (PLoS ONE, 2015):
Hit rate of the full screen: of about 310,000 compounds, about 2,200 (0.71%) showed an effect of 50% or more. The effect is printed as a negative number. This is one part of the list.

The molecules below were run against human ether-à-go-go-related gene (hERG) potassium channel (human, UniProt Q12809) (assay: primary screen, population patch clamp on CHO cells stably expressing hERG).
Chain of human ether-à-go-go-related gene (hERG) potassium channel (Q12809 whole entry, looked up): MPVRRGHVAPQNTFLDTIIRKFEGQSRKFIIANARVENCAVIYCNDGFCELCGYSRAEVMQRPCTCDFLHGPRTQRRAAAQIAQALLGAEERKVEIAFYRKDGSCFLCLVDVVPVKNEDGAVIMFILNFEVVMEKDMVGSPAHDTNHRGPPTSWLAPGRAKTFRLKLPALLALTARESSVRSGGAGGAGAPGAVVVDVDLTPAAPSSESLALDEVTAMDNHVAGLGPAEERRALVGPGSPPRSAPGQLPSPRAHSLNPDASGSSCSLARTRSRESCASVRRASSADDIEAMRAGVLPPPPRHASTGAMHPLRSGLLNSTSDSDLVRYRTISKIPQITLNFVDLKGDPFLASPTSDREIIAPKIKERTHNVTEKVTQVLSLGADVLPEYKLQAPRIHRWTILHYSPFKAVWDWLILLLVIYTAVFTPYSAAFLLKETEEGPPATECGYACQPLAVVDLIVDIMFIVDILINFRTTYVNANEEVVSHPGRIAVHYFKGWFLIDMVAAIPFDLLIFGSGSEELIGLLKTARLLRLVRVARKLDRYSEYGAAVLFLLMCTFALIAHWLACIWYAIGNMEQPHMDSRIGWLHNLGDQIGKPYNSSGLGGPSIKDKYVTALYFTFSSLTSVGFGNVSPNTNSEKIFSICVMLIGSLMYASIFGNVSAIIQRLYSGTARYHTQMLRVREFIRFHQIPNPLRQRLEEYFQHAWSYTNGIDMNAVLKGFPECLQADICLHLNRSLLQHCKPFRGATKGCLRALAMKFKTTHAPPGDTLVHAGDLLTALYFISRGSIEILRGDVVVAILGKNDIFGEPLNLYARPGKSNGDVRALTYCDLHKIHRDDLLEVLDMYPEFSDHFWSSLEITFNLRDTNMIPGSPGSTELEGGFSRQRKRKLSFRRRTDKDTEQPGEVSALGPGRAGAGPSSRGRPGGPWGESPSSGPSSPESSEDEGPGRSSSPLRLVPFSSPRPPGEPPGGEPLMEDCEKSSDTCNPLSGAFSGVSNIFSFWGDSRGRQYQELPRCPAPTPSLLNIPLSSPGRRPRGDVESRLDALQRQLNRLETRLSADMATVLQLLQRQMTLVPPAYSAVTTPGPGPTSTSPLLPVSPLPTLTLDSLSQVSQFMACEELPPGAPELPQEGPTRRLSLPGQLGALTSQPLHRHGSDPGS

| Structure (SMILES) | hERG current change (%, negative = inhibition) at 1uM |
| --- | --- |
| COc1cc(NC(=O)C2CCN(S(=O)(=O)c3ccc4[nH]c(=O)oc4c3)CC2)cc(OC)c1 | 12.7% |
| Cc1ccc(S(=O)(=O)N(CC(=O)N2CCOCC2)C2CCCCC2)cc1 | -9.79% |
| CNC(=O)c1cc(C(=O)c2ccc(F)cc2C(F)(F)F)c[nH]1 | 12.1% |
| NS(=O)(=O)c1ccc(CCNC(=O)C2CCN(S(=O)(=O)c3cccc4cccnc34)CC2)cc1 | -7.42% |
| COc1ccc(NC(=O)c2cc(SC)ccc2Cl)cc1 | 17% |
| CSc1nc(C)cc(SCCO)n1 | 7.89% |
| CC(=O)Nc1ccc(NC(=O)c2nc(S(=O)(=O)Cc3ccccc3)ncc2Cl)cc1 | 18.1% |
| CCOC(=O)c1oc2cccc(OCC(O)CNC(C)C)c2c1C.Cl (centres unmarked) | 7.86% |
| COc1ccc(N2CCN(CCCNC(=O)CN3CCN(Cc4ccccc4C)C3=O)CC2)cc1 | -16.7% |
| Cc1cccc(NC(=O)NC(C)C(c2cccs2)N2CCOCC2)c1 (centres unmarked) | 20.8% |
| Cn1c(COc2ccccc2)nnc1SCC(=O)NNC(=O)C1CCCCC1 | 14.1% |
| O=S(=O)(N/N=C/c1ccccc1F)c1ccccc1 | 5.46% |
| Cc1cc(C(=O)NNc2ccc(F)cc2F)no1 | 14% |
| COc1cc2c(cc1OC)-c1cc(Nc3ccc(F)cc3)nc(=O)n1CC2 | 3.46% |
| CCSc1nnc(NC(=O)CCCOc2ccc(C)cc2)s1 | 12.2% |
| Cc1cccc(C(=O)OCC(=O)Nc2ccc(N3CCCCC3)cc2)c1O | 18% |
| O=C(CN1CCC(c2nc3ccccc3s2)CC1)N1CCCCC1 | -0.402% |
| COc1cc(C2C(C(=O)/C=C/c3ccccc3)=C(O)C(=O)N2c2ccccn2)ccc1O (centres unmarked) | 18.3% |
| COc1ccc(C2C(=O)N(C3CCCCC3)CC(=O)N2Cc2ccc3c(c2)OCO3)cc1 (centres unmarked) | 4.4% |

| Structure (SMILES) | hERG current change (%, negative = inhibition) at 1uM |
| --- | --- |
| COc1ccc2nc(SCC(=O)NCc3ccc(OC)c(OC)c3)[nH]c2c1 | 12.6% |
| Fc1ccc(Oc2nc(-c3ccccn3)nc3ccccc23)cc1 | 13.8% |
| Cc1ccc(C(c2nnnn2Cc2cccs2)N2CCN(C(=O)c3ccco3)CC2)cc1 (centres unmarked) | -11% |
| CCSc1nc(C)c(CCOc2cccc(C)c2)c(=O)[nH]1 | 10.3% |
| COC(=O)C(NC(=O)CCc1c(C)nc2c(c(C)nn2-c2ccccc2)c1C)C(C)C (centres unmarked) | 8.09% |
| Cc1oc(/N=C/c2ccc3c(c2)OCO3)c(C#N)c1C | 5.55% |
| N#CCC(=O)Nc1ccc(C(=O)NCc2ccccn2)cc1 | 5.8% |
| Cc1ccc(Nc2nc(CSc3nnc(-c4cccs4)o3)cs2)cc1 | 12.5% |
| COCCNC(=O)C(c1ccc(OC)cc1)N(C(=O)Cn1nnc2ccccc21)c1cccnc1 (centres unmarked) | 8.91% |
| COc1cc(NC(=S)N2CCN(S(=O)(=O)c3ccc(C)cc3)CC2)cc(OC)c1 | 1% |
| COc1ccccc1C(=O)NCCn1cc(SCC(=O)Nc2nnc(C)s2)c2ccccc21 | 12.8% |
| O=C(CNC(=O)c1cccs1)c1ccc(F)cc1 | 10.7% |
| CCOC(=O)c1sc2nc(C)nc(SCC(=O)N(C)C3CCS(=O)(=O)C3)c2c1C (centres unmarked) | 3.89% |
| CCOc1ccc2nc(NC(=O)C3CCCN(S(=O)(=O)c4c(C)noc4C)C3)sc2c1 (centres unmarked) | 12.2% |
| COc1nnc(-c2ccc(C)c(S(N)(=O)=O)c2)c2ccccc12 | 3.63% |
| COCCN(C(=O)CSc1nnc(-c2ccccc2F)o1)c1c(N)n(CC(C)C)c(=O)[nH]c1=O | 7.53% |
| COCCN(CCOC)S(=O)(=O)c1ccc(C(=O)Nc2nnc(CSC)o2)cc1 | 10.8% |
| COCCNc1oc(/C=C/c2ccc(F)cc2)nc1S(=O)(=O)c1ccccc1 | 14.8% |
| CCc1c(C)sc(NC(=O)CCc2ccc(OC)cc2)c1C(N)=O | 16.6% |

| Structure (SMILES) | hERG current change (%, negative = inhibition) at 1uM |
| --- | --- |
| CCCc1cc2c(cc1NS(=O)(=O)c1ccc(CCNC(C)=O)cc1)OCO2 | -33.9% |
| CCc1ccc(OCC(O)CN2CCN(c3ccc(OC)cc3)CC2)cc1.Cl (centres unmarked) | -15.2% |
| CC(=O)Oc1ccc(OC(C)=O)c(S(=O)(=O)c2ccc(C)c(C)c2)c1 | 15.3% |
| CSc1nn2c(C(F)(F)F)cc(C(F)(F)F)nc2c1C(N)=O | 11.4% |
| COc1cc(C(CC(=O)N2CCOCC2)c2c(OC)cc(OC)c3ccc(=O)oc23)cc(OC)c1OC (centres unmarked) | 14.6% |
| Cc1sc2ncnc(N(C)Cc3cccs3)c2c1C | 4.84% |
| O=C(Nc1ccc2nccnc2c1)c1ccco1 | 14% |
| COc1ccccc1CNS(=O)(=O)c1ccc2c(c1)NC(=O)CS2 | 8.67% |
| COc1ccc(Nc2nccc(-c3cccc(N)c3)n2)cc1 | 20% |
| C/C(CC(=O)Nc1cc(Cl)ccc1Cl)=N\NC(=O)c1ccco1 | 6.61% |
| Cc1cc(C)c2c(CC(=O)O)c(C)[nH]c2c1 | 5.64% |
| N#CCC(=O)Nc1ccc(C(=O)N2CCN(S(=O)(=O)c3ccc4ccccc4c3)CC2)cc1 | 9% |
| COc1c(Br)cc(Br)cc1C(=O)Nc1ccccc1N1CCCC1 | 15.6% |
| COc1ccc(OC)c(CCNC(=O)CCc2cn(C)c3ccccc23)c1 | 14.2% |
| O=C(CN1CCN(c2ccccn2)CC1)N1c2ccccc2CCc2ccccc21.O=C(O)C(=O)O | 8.38% |
| O=C(O)Cc1sc(NC2CCCCC2)nc1-c1ccc(Cl)cc1 | 15.2% |
| CCOc1ccc(-n2cnnn2)cc1S(=O)(=O)N1CCC(C)CC1C (centres unmarked) | 7.73% |
| CCOCCCNC(=O)C(NC(=O)Cc1c[nH]c2ccccc12)c1ccc(OC)cc1 (centres unmarked) | 14.7% |
